From paper PMC4336329 (PLoS ONE, 2015)
In all, about 310,000 compounds went through this assay and about 14,000 (4.5%) showed an effect of 50% or more. The effect is printed as a negative number. Some of the results follow.

The compounds below were run against human ether-à-go-go-related gene (hERG) potassium channel (human, UniProt Q12809) (assay: primary screen, population patch clamp on CHO cells stably expressing hERG).
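Note: peak tail current of the secondary pulse compared with the same well before compound.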

Chain of human ether-à-go-go-related gene (hERG) potassium channel (Q12809 whole entry, looked up): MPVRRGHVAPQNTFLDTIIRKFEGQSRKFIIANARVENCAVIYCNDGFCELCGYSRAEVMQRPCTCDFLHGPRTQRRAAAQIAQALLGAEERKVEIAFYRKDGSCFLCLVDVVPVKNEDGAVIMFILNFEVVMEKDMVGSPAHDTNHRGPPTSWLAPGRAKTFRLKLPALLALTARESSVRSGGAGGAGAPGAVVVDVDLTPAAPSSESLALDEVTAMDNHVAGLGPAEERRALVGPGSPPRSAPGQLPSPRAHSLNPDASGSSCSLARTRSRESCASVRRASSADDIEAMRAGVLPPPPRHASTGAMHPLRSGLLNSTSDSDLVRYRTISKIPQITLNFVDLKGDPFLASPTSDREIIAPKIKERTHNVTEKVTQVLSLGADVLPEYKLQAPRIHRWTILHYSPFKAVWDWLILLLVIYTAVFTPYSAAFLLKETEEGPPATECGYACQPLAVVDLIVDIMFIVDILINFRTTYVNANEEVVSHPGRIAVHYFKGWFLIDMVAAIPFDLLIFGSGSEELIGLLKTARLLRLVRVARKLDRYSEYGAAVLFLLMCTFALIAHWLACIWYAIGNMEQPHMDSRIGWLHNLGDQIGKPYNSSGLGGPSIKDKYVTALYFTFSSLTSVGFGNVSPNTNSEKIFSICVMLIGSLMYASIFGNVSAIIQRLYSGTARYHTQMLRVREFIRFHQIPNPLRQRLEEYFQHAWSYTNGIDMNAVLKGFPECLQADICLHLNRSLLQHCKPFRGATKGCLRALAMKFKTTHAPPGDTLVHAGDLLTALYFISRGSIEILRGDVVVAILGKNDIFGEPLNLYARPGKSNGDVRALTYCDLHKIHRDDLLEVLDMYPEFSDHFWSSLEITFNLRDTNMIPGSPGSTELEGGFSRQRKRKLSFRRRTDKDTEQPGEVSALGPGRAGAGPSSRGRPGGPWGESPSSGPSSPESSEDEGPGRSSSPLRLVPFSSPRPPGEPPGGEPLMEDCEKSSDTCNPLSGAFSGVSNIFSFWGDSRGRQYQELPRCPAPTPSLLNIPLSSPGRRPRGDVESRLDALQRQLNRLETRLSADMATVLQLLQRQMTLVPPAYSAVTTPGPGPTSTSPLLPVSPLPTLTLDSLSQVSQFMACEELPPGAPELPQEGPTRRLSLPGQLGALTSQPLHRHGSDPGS

Point of comparison: `Cc1ccc(-c2nc(=S)c3c(n2CC2CCCO2)CC(C)(C)OC3)cc1` (centres unmarked), “hERG current change (%, negative = inhibition) at 10uM” value -14.8%. Against it:
- O=C1CC(N2CCN(C/C=C/c3ccccc3)CC2)C(=O)N1Cc1ccc(N2CCCC2=O)cc1 (centres unmarked) — lower, -46.7%
- CCOC(=O)C1=C(C)OC(N)=C(C#N)C1c1ccc(C)s1 (centres unmarked) — higher, 24.8%
- COc1ccccc1C(=O)Nc1ccc(N2CCN(C(C)=O)CC2)cc1 — higher, 3.05%
- COC(=O)Cc1c(C)c2cc(Cl)c(OC(=O)c3ccco3)cc2oc1=O — higher, 11.7%
- COc1ccc(C(=O)Nc2ccc(S(=O)(=O)Nc3ncccn3)cc2)cc1OC — higher, -9.94%
- CC1(OC(=O)C2CCCC2)C(=O)C=C2C=C(c3ccsc3)N(c3ccccc3)C=C2C1=O (centres unmarked) — higher, -0.738%
- CC(=O)N/C(=C/c1ccccc1)C(=O)NC(Cc1ccccc1)C(=O)O (centres unmarked) — higher, 19.3%
- O=C(NCC(c1ccco1)N1CCc2ccccc2C1)c1cccc([N+](=O)[O-])c1 (centres unmarked) — lower, -67.2%
- Nc1cn(C2OC(CO)C(O)C2O)c(=O)[nH]c1=O (centres unmarked) — higher, 14.4%
- COCCNC(=O)Cn1c(=O)n(CCC(=O)NCCc2ccccc2)c(=O)c2ccccc21 — higher, 7.75%
- CCOC(=O)c1sc(=N)n(-c2ccc(OC)cc2)c1C — higher, -4.06%
- O=C(Cn1cc2c(n1)CCCC2)NCc1cccnc1 — higher, 6.69%
- COc1ccc(N(C(C)=O)S(=O)(=O)c2cccs2)cc1 — higher, 7.03%
- COC(=O)CSc1nc(NCc2ccccc2)nc(N(C)C)n1 — higher, 21.3%
- Cc1ccc(C)c(OCCCCN2CCCCC2)c1.O=C(O)C(=O)O — lower, -42.1%
- CC1CC1C(=O)Nc1nc(-c2ccccc2)cs1 (centres unmarked) — higher, -6.6%
- CCOC(=O)C1CCN(c2cc3c(cc2NC(=O)c2ccccc2Br)n(C)c(=O)n3C)CC1 — lower, -37%
- Cc1cc(C(=O)CSc2nnc(-c3ccco3)o2)c(C)n1-c1ccc2c(c1)OCCO2 — higher, 7.75%
- O=C(CCC1CCN(C(=O)c2cc(C(F)(F)F)ccc2Cl)CC1)NC1CC1 — higher, -0.503%
- CCNC(=S)NC1CC2CCCC(C1)N2Cc1ccc(C)cc1 (centres unmarked) — lower, -48.1%
- Cc1ccc(/C(N)=N/OC(=O)c2ccc(Cl)cc2Cl)cc1 — higher, 1.37%
- CC(C)CC(=O)N/C(N)=N/c1nc2ccccc2o1 — higher, 1.96%
- CCOC(=O)C(Nc1ccc2ccccc2c1)C(=O)OCC — higher, -6.39%
- O=C(NC(=S)Nc1ccc(Cl)cn1)C12CC3CC(CC(C3)C1)C2 — higher, -1.08%
- CC(C)(C)OC(=O)NCCCC[C@@H](C(=O)NCCCCCCCCCCC(=O)N1CCN(C(=O)OC(C)(C)C)CC1)n1cc(CCCC(=O)O)nn1 — higher, 4.47%
- COc1ccccc1CNC(=O)CCS(=O)(=O)c1ccc2c(c1)CCCN2C(C)=O — higher, -3.6%
- CCC(=O)Nc1ccc(NC(=O)CSc2nnnn2CC)cc1C — higher, 4.23%
- CC(NC(=O)c1cnc2ccccc2n1)c1ccccc1 (centres unmarked) — lower, -16.7%
- CN(Cc1ccccc1)C(=O)COC(=O)C1CCN(S(=O)(=O)c2ccc(Cl)c(C(F)(F)F)c2)CC1 — lower, -15.8%
- COCCC(=O)N1CCC(Oc2ccc(C(=O)NCc3cccc(C)n3)cc2)CC1 — higher, 14%
- Cc1ccc(NC(=O)c2cccc(NC(=O)CC3SC(N4CCCCC4)=NC3=O)c2)nc1 (centres unmarked) — higher, -2.74%
- COc1cc(S(=O)(=O)n2cnc3ccccc32)ccc1Br — higher, 13.7%
- Oc1ccc(/C=N/N2CCN(Cc3ccccc3)CC2)cc1 — higher, 7.33%
- Cc1nc(SCC(=O)N(C)Cc2ccco2)c2c(C)c(C)sc2n1 — lower, -29.6%
- CCNC(=S)NS(=O)(=O)c1ccc(Cl)cc1 — higher, 13.7%
- N#C/C(=C\c1ccc(O)c(O)c1)C(=O)N1CCc2ccccc21 — higher, -10.7%
- O=C(C1CC2C=CC1C2)N1CCN(c2ccccc2)CC1 (centres unmarked) — higher, 2.78%
- Cc1cc(C)n(C(=O)CSc2nnc(SCC(=O)n3nc(C)cc3C)s2)n1 — higher, 0.209%
- O=C(NNc1nc2cc3c(cc2s1)OCO3)c1cccc(F)c1 — higher, 7.44%
- Cc1sc2ncn(CC(=O)NCCN3CCOCC3)c(=O)c2c1S(=O)(=O)N1CCC(C)CC1 — higher, 19.1%
- O=C1OCCC1S(=O)(=O)c1ccc2ccccc2c1 (centres unmarked) — higher, -6.35%
- CCCCN(C(=O)CSc1nnc(-c2ccccc2OC)n1C)c1c(N)n(Cc2ccccc2)c(=O)[nH]c1=O — higher, 15.1%
- CN(Cc1ccccc1)CC1CCCN(CCc2ccccc2F)C1 (centres unmarked) — lower, -49.9%
- Cn1c(=O)oc2cc(S(=O)(=O)NCCC(=O)Nc3ccc4c(c3)OCCO4)ccc21 — higher, 2.4%
- O=C1C(=O)N(c2ccccn2)C(c2cccc(F)c2)/C1=C(/O)c1ccccc1 (centres unmarked) — higher, 3.75%
- CCCCn1c(-c2ccc([N+](=O)[O-])cc2)n[nH]c1=S — higher, -5.42%
- Cc1cc2cc(CNC(=O)Nc3ccc(Cl)c(Cl)c3)ccc2n1C — higher, 2.71%
- O=C(O)COc1ccccc1/C=C1\C(=O)NC(=O)N(CCC2=CCCCC2)C1=O — higher, 11.1%
- CC(C)c1ccc(C(O)P(=O)(OC2CCCCC2)OC2CCCCC2)cc1 (centres unmarked) — higher, 5.37%
- NS(=O)(=O)c1cc(C(=O)N2CCc3ccccc32)c(Cl)cc1Cl — lower, -18.5%
- CCOCCCNS(=O)(=O)c1ccccc1 — higher, 22.1%
- Cc1ccc(NC(=O)CCS(=O)(=O)c2ccc3c(c2)NC(=O)C(C)S3)nc1 (centres unmarked) — higher, 7.69%
- Cc1c(Cc2ccccc2)sc(N)c1C(N)=O — higher, -6.37%
- CN(C)S(=O)(=O)Nc1cccc(-c2cn3c(n2)SCC3)c1 — higher, 11.2%
- CC(OC(=O)c1ccccc1C(=O)N(C)c1ccccc1)C(=O)Nc1ccc(C(N)=O)cc1 (centres unmarked) — higher, -4.36%
